# Test results: PMC4336329 (PLoS ONE, 2015)
# Screen size: about 310,000 compounds; about 2,200 (0.71%) showed an effect of 50% or more. Effects have a minus sign here. Some of the results follow.
# Biological target: human ether-à-go-go-related gene (hERG) potassium channel (human, UniProt Q12809)
# Test: primary screen, population patch clamp on CHO cells stably expressing hERG
# human ether-à-go-go-related gene (hERG) potassium channel, sequence (Q12809 whole entry, looked up): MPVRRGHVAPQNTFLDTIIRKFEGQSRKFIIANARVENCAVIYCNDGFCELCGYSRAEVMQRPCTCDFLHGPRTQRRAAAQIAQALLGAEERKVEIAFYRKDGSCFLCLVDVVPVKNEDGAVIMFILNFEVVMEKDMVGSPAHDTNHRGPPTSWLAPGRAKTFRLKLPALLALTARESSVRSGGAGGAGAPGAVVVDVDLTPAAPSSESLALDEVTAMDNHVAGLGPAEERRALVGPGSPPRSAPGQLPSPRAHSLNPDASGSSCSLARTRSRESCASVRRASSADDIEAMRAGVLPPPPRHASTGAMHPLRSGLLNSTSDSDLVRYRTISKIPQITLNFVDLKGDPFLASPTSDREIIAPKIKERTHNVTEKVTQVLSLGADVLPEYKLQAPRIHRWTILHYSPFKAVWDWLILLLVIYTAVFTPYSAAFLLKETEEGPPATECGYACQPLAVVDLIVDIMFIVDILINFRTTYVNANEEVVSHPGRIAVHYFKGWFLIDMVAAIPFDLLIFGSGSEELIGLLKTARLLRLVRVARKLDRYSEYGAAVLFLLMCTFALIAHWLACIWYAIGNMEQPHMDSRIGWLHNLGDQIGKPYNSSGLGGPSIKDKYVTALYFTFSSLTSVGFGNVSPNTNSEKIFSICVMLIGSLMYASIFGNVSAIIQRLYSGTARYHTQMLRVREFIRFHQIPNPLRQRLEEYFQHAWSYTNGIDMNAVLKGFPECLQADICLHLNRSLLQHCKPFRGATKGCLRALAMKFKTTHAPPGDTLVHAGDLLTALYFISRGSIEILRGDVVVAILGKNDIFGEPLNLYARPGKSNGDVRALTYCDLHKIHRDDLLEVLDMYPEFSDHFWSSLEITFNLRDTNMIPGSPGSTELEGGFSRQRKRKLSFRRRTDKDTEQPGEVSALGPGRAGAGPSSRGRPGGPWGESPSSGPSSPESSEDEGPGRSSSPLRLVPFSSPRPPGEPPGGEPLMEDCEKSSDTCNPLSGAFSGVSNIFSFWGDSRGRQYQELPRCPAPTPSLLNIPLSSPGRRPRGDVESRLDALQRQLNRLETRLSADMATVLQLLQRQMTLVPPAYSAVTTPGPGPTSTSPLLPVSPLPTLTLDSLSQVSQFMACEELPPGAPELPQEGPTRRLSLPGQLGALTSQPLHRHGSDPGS
row,Compound,"hERG current change (%, negative = inhibition) at 1uM [%]"
1,CCCCn1c(N)c(N(Cc2ccccc2OC)C(=O)COc2ccc(C)cc2)c(=O)[nH]c1=O,4.26
2,NNC(=O)CSc1c(-c2ccccc2)c2cc(Cl)ccc2[nH]c1=O,15.2
3,Cc1ccc(CN2CCCN(Cc3ccc(C)cc3)S2(=O)=O)cc1,6.4
4,Cc1c(C)c(C)c(S(=O)(=O)NCCc2ccncc2)c(C)c1C,5.94
5,CN(C)C=Nc1ccc(Cl)c(Cl)c1,10.5
6,CCc1ccc(NC(=O)CSc2nc3ccccc3nc2N2CCCCC2)cc1,-12.3
7,COc1ccc(NC(=O)CSc2ncccn2)cc1S(=O)(=O)N1CCCCC1,2.37
8,CCN(CC)CCNC(=O)c1cc(-c2cccnc2)nc2ccc(S(=O)(=O)N3CCC(C)CC3)cc12,-23.5
9,CCn1cc(C(=O)NCC(C)C)c(=O)c2cc(F)c(N3CCN(C(=O)c4ccco4)CC3)cc21,-8.13
10,CC(=O)c1cccc(NC(=O)CN(c2ccc(C)cc2)S(=O)(=O)c2cccc3nonc23)c1,4.37
11,COc1cccc(-n2nc(-c3ccnn3-c3ccc(F)cc3)c(=O)n(C)c2=O)c1,11.5
12,CC(=O)N1CCc2cc(S(=O)(=O)Nc3cccc(C(F)(F)F)c3)ccc21,2.7
13,O=C(NCCC(=O)N1CCCCC1)c1ccc(Br)cc1,8.65
14,Cc1ccc(NNC(=S)Nc2ccc(C(C)C)cc2)c(C)c1,-2.02
15,Cn1c(=O)c2[nH]c(SCc3ccccn3)nc2n(C)c1=S,0.955
16,COc1ccccc1NS(=O)(=O)c1cc(NC(=O)c2ccccc2F)ccc1N1CCOCC1,13.9
17,CCN(CC)c1ccc(/C=N/N2CCN(Cc3ccccc3)CC2)cc1,10.4
18,CCN(CC(=O)Nc1ccc(OC)cc1)C(=O)c1cc([N+](=O)[O-])ccc1N1CCOCC1,5.86
19,CC1(C)CNC(=O)c2sc(NC(=O)CN3CCOCC3)nc2C1,-0.583
20,O=C(NC1CC1)C1CCN(C(=O)c2ccc(Cl)cc2)CC1,17
21,CC1CCN(C(=O)CCc2nnc3ccc(NCc4ccco4)nn23)CC1,7.5
22,O=S(=O)(c1ccc(S(=O)(=O)N2CCCC3(CCCCC3)C2)cc1)N1CCCCC1,-3.24
23,COc1cc(OC)cc(C(=O)N[C@H](C(=O)OCn2nnc3ccccc3c2=O)C(C)C)c1,3.47
24,O=C1N[C@H](Cc2ccccc2)C(=O)N[C@H]1Cc1cn(S(=O)(=O)c2ccccc2)c2ccccc12,19
25,CCOc1ccc(CN2CCNC(=O)C2CC(=O)NCCCOc2cccnc2)cc1 (stereo not shown),22
26,Cc1ccc(-n2nc3c(N4CCC(C(=O)N5CCCCCC5)CC4)nnc(C)c3c2C)cc1,-13.5
27,O=C(NNC(=O)c1ccccc1O)c1ccc(Cl)cc1,8.29
28,Cc1cc(C)cc(NC(=O)C2CCN(S(C)(=O)=O)CC2)c1,10

row,Compound,"hERG current change (%, negative = inhibition) at 1uM [%]"
1,O=C(NCCOc1ccccc1Cl)C(=O)NCCOc1ccccc1Cl,5.53
2,NC(=O)c1ccc2c(=O)c(O)c(-c3cc(Cl)c(N)c(Cl)c3)[nH]c2c1,16.1
3,COc1ccccc1-c1nnc(NC(=O)c2ccc3ncsc3c2)o1,5.51
4,O=C(c1cccc(F)c1)N1CCN(C(=O)c2cc(-c3ccc(Cl)cc3Cl)on2)CC1,8.3
5,CCCNC(=S)Nc1ccc(S(N)(=O)=O)cc1,17.2
6,COC(=O)c1cc(COc2ccc3ccc(=O)oc3c2)c(C)o1,21.5
7,CCOc1ccc2oc(C(=O)N(C)CC(=O)Nc3ccc(OCC)c(OCC)c3)c(C)c2c1,-10.6
8,COCCCn1cc(C(=O)c2ccccc2OCC(=O)Nc2cccc(F)c2)cc(C#N)c1=O,-5.53
9,CCOc1ccc(CCNS(=O)(=O)c2ccc3c(c2)N(C(C)=O)CCO3)cc1OCC,5.82
10,O=C(NCc1ccncc1)c1ccccc1Nc1ccc(SC(F)F)cc1,-1.38
11,Cc1ccc(N2C(=O)C3C4C=CC(CNC(=S)N5CCN(c6ccccc6)CC5)(O4)C3C2=O)cc1 (stereo not shown),15.2
12,CCOc1cc(C2NC(=O)NC(C)=C2C(=O)OCC2CCCCC2)ccc1O (stereo not shown),13.8
13,O=S(=O)(Nc1nc2ccccc2nc1Cl)c1ccccc1,15.6
14,Cc1ccc(O)c(NC(=O)c2cc(-c3cccs3)on2)c1,11
15,CCCc1cc(=O)n2[nH]c(NCc3ccccc3F)nc2n1,14
16,Cc1nc2cc(NC(=O)c3ccco3)ccc2n1C,8.23
17,COCCCNc1nc2nonc2nc1N1CCN(Cc2cccc(C)c2)CC1,12.5
18,COc1ccc(OC)c(S(=O)(=O)Nc2ccc3c(c2)C(=O)OC3)c1,14.5
19,O=C(c1cc2ccccc2o1)N1CCN(S(=O)(=O)c2cccs2)CC1,6.76
20,COc1ccc(Cl)cc1C(=O)OCC(=O)NCc1cccs1,4.83
21,CCOC(=O)C1=C(N)OC(C)=C(C#N)C1c1ccco1 (stereo not shown),6.22
22,O=C(COC(=O)CCC(=O)c1cccs1)Nc1ccc(Cl)cn1,7.14
23,O=C(Nc1ccc2c(c1)OCO2)c1cnc2n(c1=O)CCS2,1.77
24,COc1cc(C2C(C(=O)c3ccc(C)o3)=C(O)C(=O)N2c2cc(C)on2)cc(Br)c1O (stereo not shown),14.8
25,CCn1c(-c2ccco2)n[nH]c1=S,4.92
26,COc1ccccc1Nc1ncc(C(=O)Nc2ccc(OC)c(OC)c2)c2ccccc12,13.1
27,CN(C)S(=O)(=O)c1cccc(NC(=O)c2cc(-c3cccs3)nc3ccccc23)c1,9.76
